The source of these data is paper PMC4416901, “The Mycobacterium tuberculosis ClpP1P2 Protease Interacts Asymmetrically with Its ATPase Partners ClpX and ClpC1” (PLoS ONE, 2015).

Series [1] deals with the molecule itself. The experiment in a line: negative stain electron microscopy; 1.4 μM proClpP1 protomer on a carbon-coated grid, 2% uranyl acetate.
The series “SEC” deals with the molecule itself. The experiment in a line: SEC. For orientation: SEC sorts molecules by how far they enter the pores of the column.
Series [2] concerns the target T1, mature ClpP2 produced by in vitro processing of proClpP2 in the ClpP1P2 double-ring (Mycobacterium tuberculosis H37Rv).
T1 construct: Mtb ClpP2 after propeptide cleavage, processed after Ala12; also called mClpP2; wtClpP2; not shown: His4, C-terminal, kept
The experiment in a line: SEC. As to conditions: both partners purified.

B1: proClpP1 (Mycobacterium tuberculosis ClpP1 containing the N-terminal propeptide) (enzyme)
chain: not shown
notes: Mtb ClpP1, full length with its N-terminal propeptide; also called full-length ClpP1; Mtb ClpP1
With B1, the binding result in series [1] is listed as “binds”.

B2: mature ClpP1 produced by in vitro processing of proClpP1 in the ClpP1P2 double-ring (enzyme)
chain: not shown
notes: Mtb ClpP1 after propeptide cleavage; The cleavage site is called predominant, so other N-termini may be present; also called mClpP1; wtClpP1; not shown: His4, C-terminal, kept
Consider B2, for which the binding result (in the series “SEC”; in series [2]) was “binds” each time.
